From PubChem BioAssay (Tox21)
“And” between values parts separate entries of the source, which are not always exact repeats. Equal entries are not always repeated. The shares of active, inactive and inconclusive entries below differ from those in the screen. Where the call is inconclusive, the potency comes from a doubtful curve fit. Some structures have more than one record in an assay (separate samples or runs), and their calls can disagree. The source made the active and inactive calls. Unless noted, calls come from the whole dose curve; as a rule, active = well fitted curve in the direction sought with a large enough effect in the repeat runs; inconclusive = weak or mixed curves; inactive = no such curve, though single readings can be large; an effect the other way counts as inactive or inconclusive.

Legend:
[1] = qHTS RealTime-Glo MT Cell Viability Assay in HepG2 cells - 16 hour (AID 1224885); note: nearly all actives have a fitted effect of over 50% in size
In short: (§1)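 Real-time, nonlytic viability: 600 HepG2 cells/well mixed with NanoLuc enzyme plus prosubstrate; 5 h settle, compound (DMSO) added by pintool; luminescence monitored over 40 h at 37 C.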

[2] = qHTS RealTime-Glo MT Cell Viability Assay in HEK293 cells - 24 hour (AID 1224886); note: nearly all actives have a fitted effect of over 50% in size
In short: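 Cells + reagent dispensed (600 cells/well, HEK293) → 5 h at 37 C/5% CO2 → 23 nL compound in DMSO pinned → 40 h at 37 C → luminescence read at 0, 8, 16, 24, 32, 40 h.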

[3] = A CellTox Green Cytotoxicity Assay to monitor cytotoxicity in HEK293 cells - 8 hour (AID 1224884); note: nearly all actives have a fitted effect of over 35% in size
In short: (§2)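 Real-time, in one plate: 600 HEK293 cells/well with dead-cell DNA dye, pinned compound after 5 h, 37 C incubation over 40 h; viable cells give no appreciable fluorescence.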

[4] = A CellTox Green Cytotoxicity Assay to monitor cytotoxicity in HEK293 cells - 16 hour (AID 1224888); note: nearly all actives have a fitted effect of over 35% in size
In short: as §2

[5] = A CellTox Green Cytotoxicity Assay to monitor cytotoxicity in HepG2 cells - 32 hour (AID 1224883); note: nearly all actives have a fitted effect of over 50% in size
In short: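 Cytotoxicity was tracked as dead-cell DNA fluorescence in HepG2 cells treated with test compounds at 37 C; each time-point value comes from one kinetic series spanning 0, 8, 16, 24, 32 and 40 h.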

[6] = qHTS RealTime-Glo MT Cell Viability Assay in HEK293 cells - 8 hour (AID 1224887); note: nearly all actives have a fitted effect of over 50% in size
In short: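 Kinetic, non-lysing viability readout. Seed HEK293 (600/well) with reagent, incubate 5 h at 37 C/5% CO2, pin 23 nL compound in DMSO, incubate at 37 C, read luminescence at 0, 8, 16, 24, 32, 40 h.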

[7] = qHTS assay to identify small molecule antagonists of the estrogen receptor alpha (ER-alpha) signaling pathway using the BG1 cell line in the presence of 0.1 nM 17-beta-estradiol - cell viability counter screen (AID 1259241); note: nearly all actives have a fitted effect of over 40% in size
In short: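 Cytotoxicity counter-screen: live-cell protease activity measured by fluorescence (30 min reagent step) in the same wells. Cells were VM7Luc4E2 with endogenous ER-alpha and ERE-driven luciferase, treated 22 hr at 37C alongside 0.1 nM 17beta-estradiol final.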

[8] = qHTS assay to identify small molecule phospholipidosis (PLD) inducers (AID 1259344; active = well fitted curve in the direction sought with a large enough effect; inconclusive = small, poorly fitted or top-dose-only effect, or another doubt; inactive = no such curve, though single readings can be large; an effect the other way counts as inactive or inconclusive)
In short: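 After 4 h attachment on collagen I, HepG2 cells were dosed with compound alongside LipidTOX Red, kept 24 h at 37 C, fixed, and imaged for lamellar phospholipid pits.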

[9] = qHTS assay to identify small molecule antagonists of the androgen receptor (AR) signaling pathway using the MDA cell line in the presence of 0.5 nM R1881 - cell viability counter screen (AID 1259242); note: nearly all actives have a fitted effect of over 45% in size
In short: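 Cells seeded at 3,000/well and allowed 5 hr at 37C, 0% CO2 before compound transfer and R1881 (0.5 nM final) addition; 16 hr later, live-cell protease fluorescence indicated cytotoxicity.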

[10] = molecular target: Estrogen receptor (Homo sapiens) (UniProt P03372); experiment: qHTS assay to identify small molecule antagonists of the estrogen receptor alpha (ER-alpha) signaling pathway using the BG1 cell line in the presence of 0.1 nM 17-beta-estradiol (AID 1259244); note: nearly all actives have a fitted effect of over 50% in size
In short: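 Luciferase signal from VM7Luc4E2 ERE-reporter cells, co-dosed with test compound and 0.1 nM final 17beta-estradiol for 22 h, read with ONE-Glo.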

[11] = qHTS RealTime-Glo MT Cell Viability Assay in HepG2 cells - 0 hour (AID 1224889); note: nearly all actives have a fitted effect of over 50% in size
In short: as §1
Potency is the fitted concentration of half-maximal effect; tags give direction and shape of the fitted curve.

Sequence of UniProt P03372 (P03372 whole entry, looked up): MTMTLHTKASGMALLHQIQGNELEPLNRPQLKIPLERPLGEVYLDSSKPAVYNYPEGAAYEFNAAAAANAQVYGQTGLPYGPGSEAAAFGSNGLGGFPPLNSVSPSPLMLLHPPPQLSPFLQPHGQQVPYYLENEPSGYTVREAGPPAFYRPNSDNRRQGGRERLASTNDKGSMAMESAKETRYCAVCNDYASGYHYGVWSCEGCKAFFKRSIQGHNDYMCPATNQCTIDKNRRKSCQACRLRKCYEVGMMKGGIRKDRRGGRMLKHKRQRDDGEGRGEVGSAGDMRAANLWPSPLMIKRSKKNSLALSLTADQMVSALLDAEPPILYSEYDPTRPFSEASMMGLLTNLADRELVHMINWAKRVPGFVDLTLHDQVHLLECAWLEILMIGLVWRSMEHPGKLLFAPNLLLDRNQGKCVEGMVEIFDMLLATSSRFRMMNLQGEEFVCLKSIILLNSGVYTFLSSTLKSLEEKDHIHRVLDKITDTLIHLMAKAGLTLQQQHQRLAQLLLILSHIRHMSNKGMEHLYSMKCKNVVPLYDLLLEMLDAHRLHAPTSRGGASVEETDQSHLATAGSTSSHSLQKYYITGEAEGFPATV

CCCN(CCC)c1c([N+](=O)[O-])cc(C(C)C)cc1[N+](=O)[O-]
Potency [1]: inactive | Potency [2]: inconclusive: 21.4 µM [cytotoxic, partial curve]

OCCCBr
Potency [3]: inconclusive: 61.6 µM [activator, single point] | Potency [4]: inconclusive: 61.6 µM [activator, single point]

CCC1(c2ccccc2)C(=O)N=C(O)NC1=O (stereo unspecified)
Potency [5]: inactive | Potency [4]: inactive

Nc1ccc(-c2ccccc2)cc1
Potency [3]: inactive

O=[N+]([O-])c1ccc(Oc2ccc(C(F)(F)F)cc2[N+](=O)[O-])cc1
Potency [1]: inconclusive: 49 µM [cytotoxic, partial curve, poor fit]

CC(Cc1ccccc1)NCCn1cnc2c1c(=O)n(C)c(=O)n2C (stereo unspecified)
Potency [1]: inactive

O=NN1CCCCCC1
Potency [1]: inactive

CC1C(=O)C[C@]2(C(C)C)C[C@H]12 (stereo partly specified)
Potency [3]: inactive

CC1OC(C)OC(C)O1 (stereo unspecified)
Potency [3]: inconclusive: 61.6 µM [activator, partial curve, poor fit] and inactive

ClCc1ccccn1
Potency [3]: inactive | Potency [6]: inactive

C#C[C@]1(O)CC[C@H]2[C@@H]3CCC4=CC(=O)CCC4=C3C=C[C@@]21CC
Potency [5]: inconclusive: 23.9 µM [activator, partial curve] | Potency [2]: inconclusive: 15.1 µM [cytotoxic, partial curve]

COC(=O)N(C(=O)N1CO[C@@]2(C(=O)OC)Cc3cc(Cl)ccc3C2=N1)c1ccc(OC(F)(F)F)cc1
Potency [3]: inconclusive: 37.6 µM [activator, partial curve, poor fit] | Potency [1]: inconclusive: 16.8 µM [cytotoxic, partial curve] | Potency [2]: inconclusive: 11.9 µM [cytotoxic, partial curve] | Potency [6]: inconclusive: 8.42 µM [cytotoxic, partial curve, poor fit]

S=C1NCCN1
Potency [3]: inactive

CCOC(=O)C(Cl)C(C)=O (stereo unspecified)
Potency [3]: inconclusive: 24.8 µM [activator, partial curve, poor fit]

Cc1ccccc1O
Potency [3]: inactive

N#CC(c1ccccc1)c1ccccc1
Potency [5]: inactive | Potency [2]: inconclusive: 17.4 µM [cytotoxic, full curve]

O=S(=O)(O)F
Potency [1]: inactive

O=C(CBr)OCc1ccccc1
Potency [3]: inactive | Potency [1]: inactive | Potency [2]: inconclusive: 17.4 µM [rising, partial curve]

CC(C)(C)c1ccc(CSc2cnn(C(C)(C)C)c(=O)c2Cl)cc1
Potency [5]: inconclusive: 43.6 µM [activator, partial curve] | Potency [1]: inconclusive: 30.9 µM [cytotoxic, partial curve, poor fit] | Potency [2]: active: 0.0389 µM | Potency [6]: active: 7.76 µM | Potency [7]: inconclusive: 0.0486 µM [cytotoxic, full curve]

CC(Cc1ccc2c(c1)OCO2)NO (stereo unspecified)
Potency [3]: inactive

C1CN2CCN1CC2
Potency [3]: active: 21.9 µM

O=[N+]([O-])c1cccc2ccccc12
Potency [5]: inactive | Potency [2]: inactive

CN(C)N=O
Potency [2]: inconclusive: 15.4 µM [rising, partial curve]

Nc1ccccc1C(=O)OC/C=C/c1ccccc1
Potency [2]: active: 24.6 µM

O=C(Cl)OCCOCCOC(=O)Cl
Potency [2]: inactive

O=c1[nH]c(=O)[nH]c(=O)[nH]1
Potency [2]: inactive

CN1C(=O)C(O)N=C(c2ccccc2)c2cc(Cl)ccc21 (stereo unspecified)
Potency [2]: inconclusive: 50.7 µM [cytotoxic, single point]

OCCOc1ccccc1
Potency [2]: inactive

O=C1NCN(c2ccccc2)C12CCN(CC1COc3ccccc3O1)CC2 (stereo unspecified)
Potency [1]: inconclusive: 23.9 µM [cytotoxic, partial curve, poor fit] | Potency [2]: inconclusive: 26.8 µM [cytotoxic, single point] | Potency [7]: inconclusive: 23.7 µM [cytotoxic, partial curve] | Potency [8]: inconclusive: 12.6 µM [activator, single point]

Oc1cccc(Cl)c1Cl
Potency [2]: inconclusive: 49.2 µM [cytotoxic, partial curve, poor fit]

O=C(O)c1cc(Cl)ccc1Cl
Potency [2]: inactive

CC(C)C1(C)N=C(c2nc3ccccc3cc2C(=O)O)NC1=O (stereo unspecified)
Potency [2]: inactive

O=S(=O)(Cl)c1ccccc1
Potency [2]: inactive

ClC(Cl)=C(Cl)C(Cl)=C(Cl)Cl
Potency [2]: inactive

CC(C)(C)C(=O)C(Oc1ccc(Cl)cc1)n1cncn1 (stereo unspecified)
Potency [2]: inconclusive: 48.9 µM [cytotoxic, partial curve, poor fit]

Cc1cccc(N=Nc2ccc(N(C)C)cc2)c1
Potency [1]: inconclusive: 49 µM [cytotoxic, partial curve, poor fit] | Potency [6]: inconclusive: 55.9 µM [cytotoxic, partial curve] and inconclusive: 21.9 µM [cytotoxic, partial curve] | Potency [7]: inconclusive: 24.8 µM [cytotoxic, partial curve] | Potency [9]: inconclusive: 27.3 µM [cytotoxic, partial curve]

NCCc1ccc(O)cc1
Potency [2]: inactive

C[C@H]1C(=O)O[C@@H]2CCN3CC=C(COC(=O)[C@](C)(O)[C@]1(C)O)[C@H]23
Potency [2]: inactive

CCCCCON=O
Potency [2]: inactive

Nc1ccc(Cl)c(Cl)c1
Potency [2]: inconclusive: 17.4 µM [cytotoxic, full curve]

O=[N+]([O-])c1cc(C(F)(F)F)cc([N+](=O)[O-])c1Cl
Potency [1]: inactive | Potency [2]: inconclusive: 39.1 µM [cytotoxic, partial curve] | Potency [6]: active: 43.8 µM

CC(=O)[O-].[Tl+]
Potency [2]: inconclusive: 39.2 µM [cytotoxic, partial curve]

CCOC(=O)CBr
Potency [2]: inconclusive: 55.2 µM [cytotoxic, partial curve, poor fit]

CSc1ccc(C(=O)C(C)(C)N2CCOCC2)cc1
Potency [1]: inactive | Potency [4]: inactive | Potency [10]: inconclusive: 48.6 µM [inhibitor, partial curve, poor fit]

Nc1ccc(N)cc1
Potency [1]: inconclusive: 49 µM [cytotoxic, partial curve, poor fit] | Potency [7]: inconclusive: 54.7 µM [cytotoxic, partial curve] and inconclusive: 48.6 µM [cytotoxic, partial curve, poor fit]

CCOc1nc(C(Cl)(Cl)Cl)ns1
Potency [2]: inactive

Cc1ccccc1C(=O)Nc1cccc(OC(C)C)c1
Potency [2]: inconclusive: 43.6 µM [cytotoxic, partial curve]

BrCc1ccc(Br)cc1
Potency [2]: inactive

C[C@@H](N)[C@@H](O)c1ccccc1
Potency [2]: inactive

N#CC(Br)Br
Potency [2]: inconclusive: 13.7 µM [rising, partial curve, poor fit]

O=C1C[C@@H]2OCC=C3CN4CC[C@]56c7ccccc7N1[C@H]5[C@H]2[C@H]3C[C@H]46
Potency [1]: inactive | Potency [2]: inconclusive: 16.9 µM [cytotoxic, partial curve] | Potency [6]: inconclusive: 19 µM [cytotoxic, partial curve, poor fit] | Potency [7]: inconclusive: 33.5 µM [cytotoxic, partial curve, poor fit]

COC(=O)C(C)Oc1ccc(Oc2ccc(Cl)cc2Cl)cc1 (stereo unspecified)
Potency [2]: inactive

CCCCCCC#N
Potency [2]: inactive

CC(Cl)C(C)Cl (stereo unspecified)
Potency [2]: inactive

O=C(Nc1ccccc1)Nc1cnns1
Potency [1]: inactive | Potency [6]: inconclusive: 27.5 µM [cytotoxic, partial curve] | Potency [7]: inconclusive: 61.1 µM [cytotoxic, partial curve, poor fit] | Potency [10]: inconclusive: 68.5 µM [inhibitor, single point]

ClCCCCCCCl
Potency [2]: inactive

O=S(=O)(Cl)Cl
Potency [2]: inactive

O=C(OC1CCCCC1)c1ccccc1C(=O)OC1CCCCC1
Potency [2]: inactive

NN=C(N)N
Potency [2]: inactive

C[N+](C)(C)CCCl
Potency [2]: inactive

C=CCN(CC=C)C(=O)C(Cl)Cl
Potency [2]: inactive | Potency [11]: inactive

CCCC(=O)Cl
Potency [2]: inactive | Potency [4]: inconclusive: 0.436 µM [activator, single point]

Oc1c(Cl)c(Cl)c(Cl)c(Cl)c1Cl
Potency [2]: inconclusive: 53.9 µM [cytotoxic, single point] and inconclusive: 54.9 µM [cytotoxic, single point] | Potency [6]: inconclusive: 48 µM [cytotoxic, partial curve, poor fit] | Potency [9]: inconclusive: 67.2 µM [cytotoxic, single point]

O=CCCl
Potency [6]: inactive

CCN(CC)C(=O)[C@@H]1C=C2c3cccc4[nH]cc(c34)C[C@H]2N(C)C1
Potency [2]: inconclusive: 144 µM [cytotoxic, partial curve, poor fit] | Potency [7]: inconclusive: 50.5 µM [cytotoxic, partial curve, poor fit]

CCN(CC)C(=O)C(C)Oc1cccc2ccccc12 (stereo unspecified)
Potency [2]: inactive | Potency [11]: inconclusive: 55.4 µM [cytotoxic, partial curve, poor fit] and active: 43.6 µM | Potency [10]: inconclusive: 54.9 µM [inhibitor]

CC(C)c1c(CN(C)C(C)Cc2ccccc2)n(C)n(-c2ccccc2)c1=O (stereo unspecified)
Potency [2]: inconclusive: 10.7 µM [cytotoxic, partial curve] | Potency [6]: inconclusive: 16.9 µM [cytotoxic, partial curve]

C[C@]12CCC(=O)C(O)=C1CC[C@@H]1[C@@H]2CC[C@]2(C)C(=O)CC[C@@H]12
Potency [2]: inconclusive: 21.9 µM [cytotoxic, partial curve, poor fit] | Potency [7]: inactive | Potency [8]: inconclusive: 11.2 µM [activator, partial curve] and inconclusive: 6.31 µM [activator, partial curve]

CC(O)CCO (stereo unspecified)
Potency [2]: inactive | Potency [4]: inactive

C[C@]12CC[C@@H](O)C[C@@H]1CC[C@@H]1[C@@H]2CC[C@]2(C)C(=O)CC[C@@H]12
Potency [2]: active: 38.9 µM | Potency [6]: inconclusive: 34.7 µM [cytotoxic, partial curve, poor fit] | Potency [11]: active: 34.7 µM
